Test results published in the supplement of paper PMC10441789.
This is one part of the list. Antibody binding of pooled human sera (four to six donors per pool; dilution not stated) to peptides of the Trypanosoma cruzi antigen TSSA on microarrays. Quantile-normalised fluorescence in arbitrary units, mean of duplicate arrays; higher = more binding. No active / inactive call. The uninfected pools are read here as the healthy donors of the same country. The strongest signals lie near the top of the scale (about 60,000).

Key:
Assay in all cases: antibody binding signal (normalised fluorescence) (arbitrary fluorescence units); higher = stronger serum antibody binding to peptide
[1] = test system: pooled sera of chronic Chagas disease patients, Argentina
Method: (§1)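 Microarray of 15-residue peptides over residues 30-55 of Trypanosoma cruzi TSSAII, each with 1 to 10 substitutions at naturally variable positions, probed with one serum pool per country.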

[2] = test system: pooled sera of chronic Chagas disease patients, Bolivia
Method: as §1

[3] = test system: pooled sera of chronic Chagas disease patients, Brazil
Method: as §1

[4] = test system: pooled sera of chronic Chagas disease patients, Colombia
Method: as §1

[5] = test system: pooled sera of chronic Chagas disease patients, Mexico
Method: as §1

[6] = test system: pooled sera of chronic Chagas disease patients, USA
Method: as §1

[7] = test system: pooled sera of uninfected people, Argentina
Method: as §1

[8] = test system: pooled sera of uninfected people, Bolivia
Method: as §1

[9] = test system: pooled sera of uninfected people, Brazil
Method: as §1

[10] = test system: pooled sera of uninfected people, Colombia
Method: as §1

[11] = test system: pooled sera of uninfected people, Mexico
Method: as §1

[12] = test system: pooled sera of uninfected people, USA
Method: as §1

Row | Sequence | antibody binding signal [1] | antibody binding signal [2] | antibody binding signal [3] | antibody binding signal [4] | antibody binding signal [5] | antibody binding signal [6] | antibody binding signal [7] | antibody binding signal [8] | antibody binding signal [9] | antibody binding signal [10] | antibody binding signal [11] | antibody binding signal [12]
1 | SGKDNKTATGETPSQ | 637 | 1050 | 4810 | 1830 | 335 | 5950 | 210 | 271 | 230 | 312 | 113 | 195
2 | GTDNKTAAGEAPSQS | 354 | 18600 | 32000 | 331 | 318 | 8270 | 149 | 679 | 1110 | 144 | 103 | 121
3 | PSGTDNKAATGEAPS | 26800 | 35600 | 44500 | 323 | 408 | 27000 | 170 | 577 | 1220 | 224 | 154 | 146
4 | ISTPPSGKENKTAAG | 31700 | 3680 | 8960 | 456 | 7350 | 3160 | 2390 | 1100 | 146 | 604 | 205 | 427
5 | DKKAAAGETPSQSGA | 806 | 418 | 5560 | 318 | 275 | 1380 | 135 | 187 | 209 | 533 | 266 | 169
6 | TDNKAAAGGTPSQSG | 203 | 190 | 296 | 1990 | 251 | 873 | 169 | 242 | 1450 | 258 | 226 | 128
7 | GTEKKAAAGETPSPS | 548 | 277 | 658 | 721 | 742 | 4080 | 139 | 867 | 168 | 189 | 337 | 2050
8 | PPSGTDKKAAAGEAP | 8420 | 12900 | 28100 | 3750 | 36500 | 9450 | 432 | 416 | 504 | 498 | 2880 | 220
9 | EKKTATGGAPSQPGA | 1940 | 579 | 2620 | 3020 | 1230 | 995 | 351 | 859 | 136 | 138 | 340 | 765
10 | DNKPATGGTPSQSGA | 400 | 1040 | 1580 | 225 | 442 | 315 | 262 | 514 | 704 | 258 | 310 | 156
11 | KENKAATGGTPSPSG | 317 | 277 | 277 | 180 | 242 | 238 | 158 | 105 | 291 | 103 | 85.6 | 140
12 | EKKTAAGGAPSPPGA | 354 | 679 | 502 | 7680 | 767 | 1150 | 207 | 781 | 137 | 323 | 180 | 671
13 | PSGKENKAATGGTPS | 5230 | 1130 | 8920 | 7530 | 8480 | 7100 | 5600 | 1710 | 186 | 430 | 312 | 211
14 | KDKKTATGEAPSPPG | 4410 | 8860 | 5060 | 280 | 246 | 13300 | 193 | 104 | 115 | 94.6 | 86.6 | 111
15 | TPPSGTDNKAAAGET | 28600 | 36300 | 45400 | 994 | 3370 | 9930 | 608 | 606 | 814 | 167 | 216 | 140
16 | GKDKKPAAGETPSPS | 509 | 332 | 398 | 892 | 878 | 1410 | 121 | 165 | 101 | 108 | 78.2 | 333
17 | GKDKKTAAGEAPSPP | 315 | 223 | 293 | 604 | 700 | 4270 | 136 | 74.2 | 93.2 | 472 | 78.6 | 85.4
18 | GKDNKTATGEAPSQP | 18000 | 13700 | 37600 | 8220 | 7390 | 21800 | 387 | 266 | 187 | 330 | 140 | 184
19 | TDNKPATGETPSQSG | 38900 | 30200 | 35600 | 288 | 245 | 28000 | 290 | 472 | 380 | 133 | 2010 | 125
20 | GTDNKAATGGTPSPS | 384 | 812 | 32100 | 337 | 453 | 221 | 191 | 735 | 1880 | 776 | 191 | 121
21 | TEKKAATGEAPSQPG | 25900 | 37600 | 44700 | 403 | 682 | 26500 | 655 | 145 | 315 | 705 | 267 | 281
22 | SGKENKTATGGAPSQ | 4180 | 893 | 19000 | 6280 | 4550 | 20100 | 5800 | 1420 | 166 | 304 | 343 | 170
23 | KTATGGAPSPPGASS | 592 | 186 | 309 | 404 | 408 | 627 | 405 | 120 | 129 | 119 | 93.3 | 152
24 | DKKTAAGETPSQSGA | 359 | 418 | 1220 | 304 | 366 | 835 | 106 | 213 | 206 | 482 | 728 | 179
25 | TDNKAAAGETPSQSG | 154 | 415 | 13300 | 135 | 149 | 206 | 72.3 | 369 | 149 | 148 | 162 | 84.7

Row | Sequence | antibody binding signal [1] | antibody binding signal [2] | antibody binding signal [3] | antibody binding signal [4] | antibody binding signal [5] | antibody binding signal [6] | antibody binding signal [7] | antibody binding signal [8] | antibody binding signal [9] | antibody binding signal [10] | antibody binding signal [11] | antibody binding signal [12]
26 | GKDNKPATGETPSPS | 35100 | 18900 | 32600 | 1410 | 1840 | 26500 | 414 | 891 | 212 | 271 | 2020 | 2190
27 | NKTATGGAPSPSGAS | 747 | 474 | 4870 | 760 | 706 | 766 | 798 | 1030 | 455 | 255 | 305 | 1270
28 | DKKAAAGGAPSPSGA | 585 | 240 | 190 | 5110 | 745 | 801 | 227 | 109 | 160 | 113 | 102 | 124
29 | STPPSGTEKKTATGE | 31000 | 27700 | 26900 | 311 | 15900 | 3020 | 758 | 266 | 500 | 155 | 130 | 96.9
30 | SGTDNKPAAGEAPSP | 8130 | 3290 | 45700 | 3310 | 251 | 18000 | 130 | 453 | 201 | 168 | 359 | 213
31 | PSGKDKKTATGGTPS | 2420 | 595 | 1990 | 4620 | 3850 | 4220 | 190 | 267 | 98.2 | 102 | 84.3 | 93.7
32 | EKKAATGETPSPSGA | 2030 | 1260 | 10000 | 351 | 374 | 11000 | 704 | 837 | 140 | 896 | 289 | 1930
33 | KDNKTAAGGAPSPSG | 557 | 237 | 251 | 3330 | 387 | 377 | 306 | 120 | 160 | 189 | 97.8 | 142
34 | GKENKTATGETPSPS | 15800 | 3330 | 17700 | 20500 | 23100 | 22700 | 577 | 268 | 146 | 212 | 465 | 2510
35 | TPPSGTDNKPAAGGT | 52800 | 49400 | 51700 | 8870 | 33200 | 23900 | 1340 | 979 | 1840 | 474 | 1450 | 375
36 | TENKTATGGTPSQSG | 18000 | 1270 | 489 | 427 | 476 | 385 | 444 | 191 | 300 | 148 | 907 | 183
37 | EKKTAAGGAPSPSGA | 384 | 518 | 212 | 7000 | 719 | 858 | 252 | 731 | 141 | 217 | 174 | 561
38 | KKPAAGETPSPSGAS | 211 | 217 | 1210 | 149 | 184 | 817 | 354 | 252 | 123 | 124 | 74.5 | 751
39 | SSTPPSGKEKKAAAG | 13200 | 220 | 355 | 676 | 11300 | 575 | 356 | 446 | 104 | 214 | 81.6 | 120
40 | TISTPPSGTDKKAAT | 38700 | 5410 | 34700 | 8280 | 39400 | 4680 | 558 | 148 | 222 | 193 | 2640 | 257
41 | EKKTATGETPSPSGA | 817 | 406 | 688 | 377 | 466 | 7010 | 458 | 517 | 157 | 126 | 229 | 1090
42 | TDNKAATGGAPSPSG | 467 | 459 | 1230 | 424 | 455 | 1150 | 228 | 290 | 1160 | 204 | 199 | 122
43 | PPSGKDKKPAAGETP | 1360 | 1310 | 1210 | 1080 | 45200 | 1790 | 388 | 339 | 132 | 356 | 84.2 | 116
44 | PPSGKDNKTATGGTP | 637 | 364 | 1960 | 2240 | 4500 | 2910 | 371 | 462 | 142 | 224 | 104 | 263
45 | KEKKPAAGGTPSPSG | 168 | 160 | 144 | 1380 | 182 | 416 | 105 | 85.3 | 521 | 108 | 79.1 | 305
46 | TDKKPATGGAPSQPG | 1620 | 3070 | 18700 | 3090 | 1410 | 1550 | 261 | 992 | 228 | 164 | 280 | 190
47 | KKTATGGTPSQSGAS | 346 | 259 | 233 | 776 | 242 | 1110 | 359 | 113 | 158 | 135 | 381 | 249
48 | GTEKKPATGGTPSQP | 2320 | 454 | 2060 | 3710 | 2470 | 1620 | 351 | 1150 | 1460 | 214 | 534 | 1420
49 | SGKENKPAAGGTPSP | 4500 | 783 | 18700 | 4870 | 4830 | 18000 | 10100 | 4040 | 617 | 310 | 561 | 171
50 | ENKPAAGEAPSPSGA | 2140 | 3480 | 28600 | 392 | 318 | 17700 | 203 | 305 | 187 | 86.7 | 105 | 180
